The values that follow come from a collection of fitness landscapes (doi:10.1126/science.1257360).

Some of the results follow.

First the molecules themselves.
B1: PhoQ; a variant is named by its letters at X, in order, P23837 (parent)
chain: MKKLLRLFFPLSLRVRFLLATAAVVLVLSLAYGMVALIGYSVSFDKTTFRLLRGESNLFYTLAKWENNKLHVELPENIDKQSPTMTLIYDENGQLLWAQRDVPWLMKMIQPDWLKSNGFHEIEADVNDTSLLLSGDHSIQQQLQEVREDDDDAEMTHSVAVNVYPATSRMPKLTIVVVDTIPVELKSSYMVWSWFIYVLSANLLLVIPLLWVAAWWSLRPIEALAKEVRELEEHNRELLNPATTRELTSLVRNLNRLLKSERERYDKYRTTLTDLTHSLKTPLXXLQXXLRSLRSEKMSVSDAEPVMLEQISRISQQIGYYLHRASMRGGTLLSRELHPVAPLLDNLTSALNKVYQRKGVNISLDISPEISFVGEQNDFVEVMGNVLDNACKYCLEFVEISARQTDEHLYIVVEDDGPGIPLSKREVIFDRGQRVDTLRPGQGVGLAVAREITEQYEGKIVAGESMLGGARMEVIFGRQHSAPKDE

The variants in this assay derive from B1. The assay is described as follows: enrichment ratio after two sorts for PhoP signalling (ratio (wild type AVST 3.29)); higher = more functional. As to conditions: with PhoP (E. coli).
As for VNNP, the enrichment ratio is at most 0.25. For VMHV the value was at most 0.25; for FKCS, at most 0.25; for MTVR, at most 0.25. With QNHC, the enrichment ratio was at most 0.25. In the case of WQVW, the enrichment ratio was at most 0.25. For RVTK the value was at most 0.25; for AVSR, 9.39.

Regarding YKYP, the enrichment ratio was at most 0.25. Turning to MDGE, the enrichment ratio was at most 0.25. In the case of WCVG it was at most 0.25; in that of KPYM, at most 0.25.

As for AKEP, the enrichment ratio is at most 0.25. As for IWLR, the enrichment ratio is at most 0.25. Take QYPI: the enrichment ratio is at most 0.25. For WREQ the value was at most 0.25. For MMTH the value was at most 0.25.

Consider RSST, for which the enrichment ratio is at most 0.25.

With ASVI, the enrichment ratio worked out at 5.75. Turning to RTWY, the enrichment ratio is at most 0.25.

As for AEDR, the enrichment ratio is at most 0.25. Take LAYY: the enrichment ratio was at most 0.25. As for WNMN, the enrichment ratio was 12. With KVYT, the enrichment ratio was at most 0.25. For the variant LFEI, the enrichment ratio was at most 0.25. As for FIVW, the enrichment ratio is at most 0.25. With NDRS, the enrichment ratio is at most 0.25. For RIDQ the value was at most 0.25. As to SHSS, the enrichment ratio was at most 0.25. For WSRD the value was at most 0.25; for IFGP, at most 0.25. In the case of DNVF it was at most 0.25; in that of QDAY, at most 0.25; in that of PRRP, at most 0.25. For the variant QAMQ, the enrichment ratio amounted to 44.4. For MYSW the value was at most 0.25.

Turning to DRVG, the enrichment ratio is at most 0.25.

Turning to SYYN, the enrichment ratio was at most 0.25.

As for PCGP, the enrichment ratio was at most 0.25. For WMYK the value was at most 0.25. In the case of EYDW it was at most 0.25; in that of WMNV, at most 0.25; in that of QSLT, at most 0.25. For KVCD the value was at most 0.25; for TYHE, at most 0.25; for WPFW, at most 0.25. In the case of TIYE, the enrichment ratio was at most 0.25. For GTYF the value was at most 0.25.

Consider VPAV, for which the enrichment ratio was at most 0.25. For HSFV the value was at most 0.25. In the case of ENRQ it was at most 0.25; in that of MFGV, at most 0.25; in that of MDKN, at most 0.25. In the case of PEVI it was at most 0.25; in that of VSIH, at most 0.25; in that of MAIQ, at most 0.25. As to PIDS, the enrichment ratio is at most 0.25. In the case of WLAF it was at most 0.25; in that of EEFM, at most 0.25; in that of GCIK, at most 0.25. In the case of GQFL it was at most 0.25; in that of YMPH, at most 0.25; in that of EEPV, at most 0.25. In the case of SYKT it was at most 0.25; in that of AYPA, at most 0.25; in that of FQFE, at most 0.25. Turning to GLTC, the enrichment ratio is at most 0.25. For IASP the value was at most 0.25; for TMPK, at most 0.25. In the case of WSAY it was at most 0.25; in that of VQID, at most 0.25. As for TWAV, the enrichment ratio was at most 0.25. In the case of AFND it was at most 0.25; in that of CLYC, at most 0.25; in that of WKVG, at most 0.25.

LAVH: the enrichment ratio was at most 0.25. In the case of MSCF it was 1.71; in that of DECV, 25.8. For IVHL the value was at most 0.25; for LLGG, at most 0.25; for LMNA, at most 0.25. Regarding PSKH, the enrichment ratio was at most 0.25. For HAWW the value was at most 0.25; for TYSN, 2.37. In the case of VSMH it was 1.13. For YDWE the value was at most 0.25; for ENGL, at most 0.25.

Regarding KECS, the enrichment ratio was at most 0.25. In the case of GGDV it was at most 0.25; in that of FKYH, at most 0.25; in that of TQCG, 14.9. Take INCA: the enrichment ratio was at most 0.25. For FKGG the value was at most 0.25; for QSQP, at most 0.25; for KTWF, at most 0.25. On to IDQG, for which the enrichment ratio was at most 0.25.

Consider SMDG, for which the enrichment ratio is at most 0.25.

Consider GDMH, for which the enrichment ratio is at most 0.25. On to RYVP, for which the enrichment ratio was at most 0.25.

For VVMP, the enrichment ratio was found to be 0.436. As to EKCQ, the enrichment ratio was at most 0.25. For EAAH, the enrichment ratio is at most 0.25. For ATNV the value was at most 0.25; for FKEV, at most 0.25. In the case of GYRK it was at most 0.25. In the case of FICV it was 1.13; in that of AKRD, at most 0.25; in that of SYVF, 0.277.

As to EDHW, the enrichment ratio was at most 0.25. In the case of DGFK it was at most 0.25.

For TMRN, the enrichment ratio is at most 0.25.

Turning to DPTF, the enrichment ratio was at most 0.25. In the case of ILTA it was at most 0.25; in that of MDLH, at most 0.25. In the case of PSYF it was at most 0.25; in that of DHLM, 0.798. For EGPM the value was at most 0.25; for PPNI, at most 0.25; for WNGK, at most 0.25. With VYMN, the enrichment ratio is at most 0.25. For SSDK the value was at most 0.25. For the variant DYAC, the enrichment ratio is at most 0.25. WNQF: the enrichment ratio was at most 0.25. For GYCA the value was at most 0.25; for SWRV, at most 0.25. In the case of FRLK it was at most 0.25. For DLQQ the value was at most 0.25; for RKII, at most 0.25; for INAI, 0.944. PQES: the enrichment ratio is at most 0.25. Take SMFR: the enrichment ratio is at most 0.25. For MHPM the value was at most 0.25; for NQSD, at most 0.25. In the case of ANSM it was 16.6; in that of HRFS, at most 0.25. For QEFH the value was at most 0.25; for FFLV, at most 0.25.

As for LYLQ, the enrichment ratio is at most 0.25. In the case of NQLW it was at most 0.25; in that of HFPQ, at most 0.25. For RFSF the value was at most 0.25; for SAPG, at most 0.25; for RFGR, at most 0.25. In the case of ELTS it was at most 0.25; in that of MNHT, at most 0.25. For MRMH, the enrichment ratio is at most 0.25. Turning to ISLQ, the enrichment ratio stood at 8.48. For PSAK the value was at most 0.25; for TSGK, at most 0.25; for IFLC, at most 0.25. In the case of QYPG it was at most 0.25; in that of GINL, at most 0.25. In the case of FLVM it was at most 0.25; in that of YWYN, at most 0.25; in that of RTIW, at most 0.25.

On to PIKQ, for which the enrichment ratio is at most 0.25. In the case of VCVN it was at most 0.25. ALMD: the enrichment ratio is at most 0.25.

In the case of WDKI, the enrichment ratio is at most 0.25. In the case of KPYC it was at most 0.25; in that of SWNV, at most 0.25.

Take VEKW: the enrichment ratio is at most 0.25.

Consider YHMH, for which the enrichment ratio was at most 0.25.

For the variant SWSG, the enrichment ratio is at most 0.25. For NDCM the value was at most 0.25; for QDGN, at most 0.25.

In the case of FGLN, the enrichment ratio stood at 7.1. For the variant YHNL, the enrichment ratio is at most 0.25. For NNFF the value was at most 0.25; for TLAT, 5.47. As to QDIQ, the enrichment ratio was at most 0.25. Consider LEMY, for which the enrichment ratio was at most 0.25. In the case of YYRW it was at most 0.25. For VFYE the value was at most 0.25; for KHEP, at most 0.25. For WMDW the value was at most 0.25. In the case of LHQH, the enrichment ratio is at most 0.25.

For the variant SWYP, the enrichment ratio is at most 0.25. Take HPKW: the enrichment ratio was at most 0.25. For PHHL the value was at most 0.25. For VSCT the value was at most 0.25; for DCVK, at most 0.25.

With RIGS, the enrichment ratio was at most 0.25. For SPVN the value was at most 0.25; for KTPE, at most 0.25. For QITS the value was at most 0.25; for WSEW, at most 0.25; for MVSK, 0.645. In the case of RHQC it was at most 0.25; in that of WQHM, at most 0.25. On to TNIL, for which the enrichment ratio was at most 0.25. Consider NIEF, for which the enrichment ratio is at most 0.25. For RWQP the value was at most 0.25; for VHHT, at most 0.25; for HDFK, at most 0.25.
